Experimental data reported in article PMC3791423.
These are yes or no findings as the source states them, for the method shown. Some results given as binding are weak or reduced against the parent protein; the word gives no strength.

Molecular target: Klebsiella pneumoniae σ^54 (Klebsiella pneumoniae) (UniProt P06223)
Assay: native gel or EMSA; ADP-AlFx trapping assay: 2.35 μM σ^54, ± 0.3 μM core RNAP, 5 mM NaF, 4 mM ADP in STA buffer, 37 °C; then 10 μM PspF_(1–275) and 0.4 mM AlCl3 for 15 min; native gel, SYPRO Ruby; both purified

Question: Which binding does the source give for “PspF_(1–275) S53C (from UniProt P37344 1-275) (domain or fragment)” here?
Answer: binds

Question: For “PspF_(1–275) R55C (from UniProt P37344 1-275) (domain or fragment)”, which binding is on record?
Answer: binds

Question: With “PspF_(1–275) Q57C (from UniProt P37344 1-275) (domain or fragment)” as the substance, how does the binding read?
Answer: binds

Question: For “PspF_(1–275) Y51C (from UniProt P37344 1-275) (domain or fragment)”, which binding is on record?
Answer: binds

Question: With “PspF_(1–275) P59C (from UniProt P37344 1-275) (domain or fragment)” as the substance, how does the binding read?
Answer: binds

Question: With “PspF_(1–275) L52C (from UniProt P37344 1-275) (domain or fragment)” as the substance, how does the binding read?
Answer: binds

Question: How did the binding turn out when “PspF_(1–275) G58C (from UniProt P37344 1-275) (domain or fragment)” was run?
Answer: binds

Question: “PspF_(1–275) F60C (from UniProt P37344 1-275) (domain or fragment)” was tested. Which binding did it give?
Answer: no binding (tested: 10 μM PspF_(1–275), 2.35 μM σ^54)

Question: With “PspF_(1–275) S62C (from UniProt P37344 1-275) (domain or fragment)” as the substance, how does the binding read?
Answer: binds

Question: How did the binding turn out when “PspF_(1–275) WT (from UniProt P37344 1-275) (domain or fragment)” was run?
Answer: binds

Question: For “PspF_(1–275) W56C (from UniProt P37344 1-275) (domain or fragment)”, which binding is on record?
Answer: binds

Question: For “PspF_(1–275) I61C (from UniProt P37344 1-275) (domain or fragment)”, which binding is on record?
Answer: no binding (tested: 10 μM PspF_(1–275), 2.35 μM σ^54)

Question: For “PspF_(1–275) S54C (from UniProt P37344 1-275) (domain or fragment)”, which binding is on record?
Answer: binds

Question: Which binding does the source give for “PspF_(1–275) H50C (from UniProt P37344 1-275) (domain or fragment)” here?
Answer: no binding (tested: 10 μM PspF_(1–275), 2.35 μM σ^54)

Question: “PspF_(1–275) W56A (from UniProt P37344 1-275) (domain or fragment)” was tested. Which binding did it give?
Answer: binds
